± gives the standard error. Variants at the background level are over-represented here.
B1: glmS ribozyme (parent)
chain: AUAAAAGCGCCAGAACUACAGAAAUGUAGUUGACGAGGAGGAGGUUUAUCGAAUUUUCGGCGGAUGCCUCCAAA

Columns and labels:
Conditions in all cases: with glucosamine-6-phosphate
glucosamine-6-phosphate [1] = variants of: B1; assay: self-cleavage kobs at 40 uM GlcN6P; higher = faster cleavage; RNA array
Procedure, shortened: (§1)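 Glucosamine-6-phosphate (40 μM to 10 mM) in HEPES/KCl/Mg(OAc)2 buffer was flowed over sequenced MiSeq chips, and tiles were imaged over ~14 h. Barcoded ribozyme variants there had been transcribed in situ by E. coli RNA polymerase and were tracked through a hybridised Cy3 probe at 37 °C. One- or two-exponential decay fits to per-tile medians, normalised to baseline and to non-cleaving reference variants, gave kobs. kcat and KM came from weighted Michaelis–Menten fits across concentrations.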

glucosamine-6-phosphate [2] = variants of: B1; assay: self-cleavage kobs at 10000 uM GlcN6P; higher = faster cleavage; RNA array
Procedure, shortened: as §1

glucosamine-6-phosphate [3] = variants of: B1; assay: self-cleavage kobs at 640 uM GlcN6P; higher = faster cleavage; RNA array
Procedure, shortened: as §1

glucosamine-6-phosphate [4] = variants of: B1; assay: self-cleavage kobs at 160 uM GlcN6P; higher = faster cleavage; RNA array
Procedure, shortened: as §1

glucosamine-6-phosphate [5] = variants of: B1; assay: self-cleavage kobs at 2500 uM GlcN6P; higher = faster cleavage; RNA array
Procedure, shortened: as §1

Variant	self-cleavage kobs at 40 uM GlcN6P (glucosamine-6-phosphate [1])	self-cleavage kobs at 10000 uM GlcN6P (glucosamine-6-phosphate [2])	self-cleavage kobs at 640 uM GlcN6P (glucosamine-6-phosphate [3])	self-cleavage kobs at 160 uM GlcN6P (glucosamine-6-phosphate [4])	self-cleavage kobs at 2500 uM GlcN6P (glucosamine-6-phosphate [5])
C10G C61U C71A	< 1e-05 s⁻¹				
C10U A52U A53U C68U	< 1e-05 s⁻¹	< 1e-05 s⁻¹			
C10U U46A U49A U65C C68G	< 1e-05 s⁻¹	< 1e-05 s⁻¹			
C10U C50G A52U	< 1e-05 s⁻¹		< 1e-05 s⁻¹	< 1e-05 s⁻¹	
C10U A42G	< 1e-05 s⁻¹				
G9U G13A C16A G38U	< 1e-05 s⁻¹				
C11A G35U U56A	< 1e-05 s⁻¹				
C10G C70U	< 1e-05 s⁻¹				
C10G A39G A52C U55G C61U G63C	< 1e-05 s⁻¹				
C11A U31A G37U U56G	< 1e-05 s⁻¹				< 1e-05 s⁻¹
C10G C58G	< 1e-05 s⁻¹	< 1e-05 s⁻¹			
C11A C16G U54A C68A	6.79e-05 ± 2.4e-05 s⁻¹				
C10U U57G	< 1e-05 s⁻¹				
C10A A33C A64C	< 1e-05 s⁻¹	< 1e-05 s⁻¹			< 1e-05 s⁻¹
C10U A12G G60A C67G C68A	< 1e-05 s⁻¹	< 1e-05 s⁻¹			
G9U G40A U54C G60C U69C	< 1e-05 s⁻¹		< 1e-05 s⁻¹		
C10G C16A	< 1e-05 s⁻¹	< 1e-05 s⁻¹	< 1e-05 s⁻¹		< 1e-05 s⁻¹
C10U U31A C34A A42G G51A	< 1e-05 s⁻¹				
C10U U31C G38U G51U U55G	< 1e-05 s⁻¹				
G9U U57C	< 1e-05 s⁻¹				
G9U U57G	< 1e-05 s⁻¹	< 1e-05 s⁻¹	< 1e-05 s⁻¹		
C11A G43A	< 1e-05 s⁻¹		< 1e-05 s⁻¹	< 1e-05 s⁻¹	< 1e-05 s⁻¹
C10A G13U G37U G60A U65A	< 1e-05 s⁻¹	< 1e-05 s⁻¹	< 1e-05 s⁻¹		
G9U U31G G32C G62A	< 1e-05 s⁻¹				
C11G A14G G63U C70A	9.38e-05 ± 2.9e-05 s⁻¹				
C10G G32U	< 1e-05 s⁻¹				

Variant	self-cleavage kobs at 40 uM GlcN6P (glucosamine-6-phosphate [1])	self-cleavage kobs at 10000 uM GlcN6P (glucosamine-6-phosphate [2])	self-cleavage kobs at 640 uM GlcN6P (glucosamine-6-phosphate [3])	self-cleavage kobs at 160 uM GlcN6P (glucosamine-6-phosphate [4])	self-cleavage kobs at 2500 uM GlcN6P (glucosamine-6-phosphate [5])
C10G G32A	< 1e-05 s⁻¹				
C11G A15U A48U	< 1e-05 s⁻¹				
C10U G35U A39U A48G	< 1e-05 s⁻¹	< 1e-05 s⁻¹	< 1e-05 s⁻¹	< 1e-05 s⁻¹	< 1e-05 s⁻¹
C10A G13C A52G	< 1e-05 s⁻¹				
C10U G13A A39U G60U	< 1e-05 s⁻¹				
C10U A33G C70U	< 1e-05 s⁻¹	< 1e-05 s⁻¹			
C10U A48G	< 1e-05 s⁻¹	< 1e-05 s⁻¹		< 1e-05 s⁻¹	< 1e-05 s⁻¹
C11A G44U C68A U69A	< 1e-05 s⁻¹	< 1e-05 s⁻¹	< 1e-05 s⁻¹		< 1e-05 s⁻¹
C10A G44C	< 1e-05 s⁻¹		< 1e-05 s⁻¹	< 1e-05 s⁻¹	< 1e-05 s⁻¹
G9U U45G C50G	< 1e-05 s⁻¹		< 1e-05 s⁻¹	< 1e-05 s⁻¹	
C10U U45A C68G	< 1e-05 s⁻¹	< 1e-05 s⁻¹			
G9U G37C U49C C67A	< 1e-05 s⁻¹	< 1e-05 s⁻¹			< 1e-05 s⁻¹
C10U U31G A64G	< 1e-05 s⁻¹				
C11G A14G G32A A48G U56G A64G	< 1e-05 s⁻¹	< 1e-05 s⁻¹			
C10G U31G G35U G40U	< 1e-05 s⁻¹				
C10G A15C A36G G41U A48U	< 1e-05 s⁻¹	< 1e-05 s⁻¹			< 1e-05 s⁻¹
G9U G43U	< 1e-05 s⁻¹	< 1e-05 s⁻¹	< 1e-05 s⁻¹		< 1e-05 s⁻¹
G9U G43A	< 1e-05 s⁻¹	< 1e-05 s⁻¹		< 1e-05 s⁻¹	
C10G G13U C34A G35U G41U U49A	< 1e-05 s⁻¹				
C10G G41U A48U G62A U69C	< 1e-05 s⁻¹	< 1e-05 s⁻¹	< 1e-05 s⁻¹	< 1e-05 s⁻¹	< 1e-05 s⁻¹
C10A G13C U55A	< 1e-05 s⁻¹				
C10U U45C	< 1e-05 s⁻¹	< 1e-05 s⁻¹	< 1e-05 s⁻¹	< 1e-05 s⁻¹	< 1e-05 s⁻¹
C10A A12C U31C A36U	< 1e-05 s⁻¹				
C10U G51A	< 1e-05 s⁻¹	< 1e-05 s⁻¹			
C11G A39U G60A	< 1e-05 s⁻¹			< 1e-05 s⁻¹	
C10U A15U G44C	< 1e-05 s⁻¹		< 1e-05 s⁻¹		

Variant	self-cleavage kobs at 40 uM GlcN6P (glucosamine-6-phosphate [1])	self-cleavage kobs at 10000 uM GlcN6P (glucosamine-6-phosphate [2])	self-cleavage kobs at 640 uM GlcN6P (glucosamine-6-phosphate [3])	self-cleavage kobs at 160 uM GlcN6P (glucosamine-6-phosphate [4])	self-cleavage kobs at 2500 uM GlcN6P (glucosamine-6-phosphate [5])
C10G G32C U57A	< 1e-05 s⁻¹				
G9U C71A	< 1e-05 s⁻¹	< 1e-05 s⁻¹	< 1e-05 s⁻¹	< 1e-05 s⁻¹	< 1e-05 s⁻¹
G9U C71G	< 1e-05 s⁻¹		< 1e-05 s⁻¹	< 1e-05 s⁻¹	< 1e-05 s⁻¹
C10U A33C C34G G44U C68G	< 1e-05 s⁻¹	< 1e-05 s⁻¹			
C11G A12G U45A U47C	< 1e-05 s⁻¹				
C10U U31G A53C U54G U55A	< 1e-05 s⁻¹				
C11A G41U	< 1e-05 s⁻¹		< 1e-05 s⁻¹	< 1e-05 s⁻¹	< 1e-05 s⁻¹
C11A G13A C16A G29C G41C G44C	< 1e-05 s⁻¹				
C10G A39U A48G A52C C68A	< 1e-05 s⁻¹				< 1e-05 s⁻¹
C10A U46G U47A G59C	< 1e-05 s⁻¹				
C11A A36C G38C	< 1e-05 s⁻¹				
C10U G13C G66U	< 1e-05 s⁻¹	< 1e-05 s⁻¹	< 1e-05 s⁻¹		
C11A U65C	< 1e-05 s⁻¹		< 1e-05 s⁻¹		< 1e-05 s⁻¹
C11A U65A	< 1e-05 s⁻¹		< 1e-05 s⁻¹	< 1e-05 s⁻¹	
C11A G38U	< 1e-05 s⁻¹	< 1e-05 s⁻¹	< 1e-05 s⁻¹	< 1e-05 s⁻¹	< 1e-05 s⁻¹
C10U A39C C70G	< 1e-05 s⁻¹				
C10A A33G	< 1e-05 s⁻¹	< 1e-05 s⁻¹	< 1e-05 s⁻¹	< 1e-05 s⁻¹	< 1e-05 s⁻¹
C10U G13C G40A	< 1e-05 s⁻¹			< 1e-05 s⁻¹	
C10G G62A	< 1e-05 s⁻¹	< 1e-05 s⁻¹	< 1e-05 s⁻¹	< 1e-05 s⁻¹	
C10U G37C G44U U65C	< 1e-05 s⁻¹		< 1e-05 s⁻¹	< 1e-05 s⁻¹	< 1e-05 s⁻¹
C11A G29A G35C A53G	< 1e-05 s⁻¹	< 1e-05 s⁻¹			
C10U A12U A33U A53G C58U U69G	9.07e-05 ± 2.5e-05 s⁻¹	6.22e-05 ± 1.8e-05 s⁻¹	0.000216 ± 5.1e-05 s⁻¹	0.000159 ± 3.3e-05 s⁻¹	0.000132 ± 4.1e-05 s⁻¹
C10U C50G	6.14e-05 ± 1e-05 s⁻¹	0.000116 ± 3e-05 s⁻¹	0.000136 ± 1.7e-05 s⁻¹	9.85e-05 ± 1.3e-05 s⁻¹	0.00051 ± 0.0002 s⁻¹
C10G A52U G59C	< 1e-05 s⁻¹		< 1e-05 s⁻¹	< 1e-05 s⁻¹	< 1e-05 s⁻¹
C10U U30C G59A G60A C70U	< 1e-05 s⁻¹				
C10A G32U G43A G63U U69A	< 1e-05 s⁻¹	< 1e-05 s⁻¹			

Variant	self-cleavage kobs at 40 uM GlcN6P (glucosamine-6-phosphate [1])	self-cleavage kobs at 10000 uM GlcN6P (glucosamine-6-phosphate [2])	self-cleavage kobs at 640 uM GlcN6P (glucosamine-6-phosphate [3])	self-cleavage kobs at 160 uM GlcN6P (glucosamine-6-phosphate [4])	self-cleavage kobs at 2500 uM GlcN6P (glucosamine-6-phosphate [5])
C11G A39G	< 1e-05 s⁻¹		< 1e-05 s⁻¹	< 1e-05 s⁻¹	< 1e-05 s⁻¹
C11A A64C	< 1e-05 s⁻¹	< 1e-05 s⁻¹	< 1e-05 s⁻¹	< 1e-05 s⁻¹	< 1e-05 s⁻¹
C11A A15C U47C	< 1e-05 s⁻¹				
C11A G44C C68G	< 1e-05 s⁻¹	< 1e-05 s⁻¹			
C10A G40U U54C	< 1e-05 s⁻¹	< 1e-05 s⁻¹			
C10A G13U A36G U46G G59A C70G	< 1e-05 s⁻¹				
C11A A33C	< 1e-05 s⁻¹			< 1e-05 s⁻¹	
C10A G43A G59U	< 1e-05 s⁻¹	< 1e-05 s⁻¹		< 1e-05 s⁻¹	
C10U A52U	< 1e-05 s⁻¹				
G9U G66U	< 1e-05 s⁻¹	< 1e-05 s⁻¹			
G9U G66C	< 1e-05 s⁻¹	< 1e-05 s⁻¹	< 1e-05 s⁻¹	< 1e-05 s⁻¹	
C10G A12C G37C	< 1e-05 s⁻¹				
C11G C34G	< 1e-05 s⁻¹	< 1e-05 s⁻¹	< 1e-05 s⁻¹	< 1e-05 s⁻¹	
C10G G44U	< 1e-05 s⁻¹	< 1e-05 s⁻¹	< 1e-05 s⁻¹	< 1e-05 s⁻¹	< 1e-05 s⁻¹
G9U U31G A36C C71G	< 1e-05 s⁻¹	< 1e-05 s⁻¹			
C10U G29U	< 1e-05 s⁻¹	< 1e-05 s⁻¹		< 1e-05 s⁻¹	< 1e-05 s⁻¹
G9U C10U C11U G32A	< 1e-05 s⁻¹	< 1e-05 s⁻¹			
C10A G40U A48C U54A G62U	< 1e-05 s⁻¹	< 1e-05 s⁻¹			
C10G U49C	< 1e-05 s⁻¹	< 1e-05 s⁻¹		< 1e-05 s⁻¹	< 1e-05 s⁻¹
C10U G41A U54A C68A	< 1e-05 s⁻¹	< 1e-05 s⁻¹			
C10A G32C G41A	< 1e-05 s⁻¹				
C10U G40A C67A	< 1e-05 s⁻¹	< 1e-05 s⁻¹			
C10G A12U G63C	< 1e-05 s⁻¹				
C11G C16U A33U A52G	< 1e-05 s⁻¹				
G9U G63C C67U	< 1e-05 s⁻¹	< 1e-05 s⁻¹			< 1e-05 s⁻¹
C10A C11A G51A	< 1e-05 s⁻¹	< 1e-05 s⁻¹			< 1e-05 s⁻¹

Reference: the supplement of paper PMC7125110
